Values joined by “and” are separate entries in the source; they are usually repeats but may differ in a detail not shown here. Equal entries are not always repeated. The campaign covered roughly 420,000 compounds. About 64,000 (15%) were called active. This list was built around the results that the source calls inconclusive (neither active nor inactive); the mix of calls is not that of the screen. Calls come from the whole dose curve; as a rule, active = well fitted inhibition curve with a large enough effect; inconclusive = small, poorly fitted or top-dose-only effect; inactive = flat fitted curve, though single readings scatter. Potencies of inconclusive entries are doubtful fits and often do not repeat. A structure can be active in one record and inactive in another.
Experiment: qHTS for Inhibitors of human tyrosyl-DNA phosphodiesterase 1 (TDP1): qHTS in cells in absence of CPT; note: nearly all actives have a fitted effect of over 55% in size
Conditions: DT40 Tdp1-/- hTDP1 cells, no CPT, ATP luminescence, 48 h; activity change, negative = growth inhibition: at 46.2 µM (top of the series) unless noted
Outline: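 No-CPT arm: Tdp1-/-;hTDP1 DT40 cells (400/well) plus compounds, incubated ≥48 hr at 37 °C. Readout CellTiter-Glo luminescence.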
% is set by controls: 0 for no effect and ±100 for the full control effect; potency is the fitted concentration of half-maximal effect; tags give direction and shape of the fitted curve.

| Compound | Potency | activity change, negative = growth inhibition |
| --- | --- | --- |
| Cc1cc(-c2ccc(C)c(S(=O)(=O)NCC3CCN(Cc4cccc(F)c4)CC3)c2)on1 | inconclusive: 16.4 µM [inhibitor, single point] |  |
| O=C(c1ccccc1Cc1ccccc1)N1CCN(S(=O)(=O)c2ccccc2Br)CC1 | inconclusive: 23.1 µM [inhibitor, single point] |  |
| Fc1ccc(N/N=C(/c2ccccc2)c2ccccn2)cc1 | inactive |  |
| CCOC(=O)c1c(NC(=O)Cn2ccsc2=N)sc(C)c1C | inactive |  |
| CSC1=NC(NCCCO)c2c(sc3c2CC(C)(C)OC3)N1 (configuration not stated) | inconclusive: 8.2 µM [inhibitor, partial curve] |  |
| C=C/C(C)=C/CC1C(=C)CCC2C(C)(C(=O)O)CCCC12C (configuration not stated) | inactive |  |
| CCCOc1ccc(C2NC(=O)NC2=O)cc1 (configuration not stated) | inactive |  |
| CC1=NN(c2ccccc2)C(=O)/C1=C\C=C1\N(C)c2ccccc2C1(C)C | active: 23.1 µM |  |
| CCNC(=O)/C(C#N)=C/c1c(N2CCCCCC2)nc2ccccn2c1=O | inconclusive: 1.84 µM [inhibitor, partial curve] |  |
| CCCOc1ccc(F)cc1-c1cc(C(=O)NC2CCCCC2)[nH]n1 | inconclusive: 20.6 µM [inhibitor, single point] |  |
| O=C(NC(=Nc1nc2ccccc2o1)NC(=O)c1ccccc1)c1ccccc1 | inconclusive: 0.13 µM [inhibitor, full curve] |  |
| CNC(=O)c1c(NC(=O)CCS(=O)(=O)c2ccccc2)sc(C)c1C | inconclusive: 29.1 µM [inhibitor, single point] |  |
| O=C(COC(=O)c1ccc[nH]c1=O)Nc1ccc2c(c1)OC(F)(F)O2 | inactive |  |
| COc1ccc(-c2coc3c(C(=O)Nc4cccc(C(C)=O)c4)cccc23)c(C)c1 | active: 20.6 µM |  |
| COc1ccc(C(=O)N2CC(=O)Nc3ccc(F)cc3C2c2ccccc2)cc1 (configuration not stated) | inactive |  |
| COC(=O)c1cc2oc3ccccc3c2n1Cc1ccccn1 | inconclusive: 18.4 µM [inhibitor, single point] |  |
| COc1cccc(CNC(=O)Nc2ccc3c(c2)N(C)C(=O)c2ccccc2S3)c1 | inconclusive: 20.6 µM [inhibitor, single point] |  |
| CC(OC(=O)c1cccc(S(=O)(=O)N(C)C)c1)C(=O)NCC(=O)Nc1ccc(F)c(F)c1F (configuration not stated) | inconclusive: 0.731 µM [inhibitor, full curve, poor fit] |  |
| COc1ccc(OC)c(-c2cc(C(=O)NCc3ccc(Cl)cc3)no2)c1 | inconclusive: 7.31 µM [inhibitor, partial curve] |  |
| COc1ccc(-c2nnc(SCC(=O)O)n2Cc2ccccc2)cc1 | inactive |  |
| Cc1ccc(-c2nn3c(C)nnc3c3ccccc23)cc1S(=O)(=O)NC(C)(C)CO | inconclusive: 14.6 µM [inhibitor, single point] and inconclusive: 32.6 µM [inhibitor, single point] |  |
| Cc1c(C(=O)Nc2ccc(C(=O)Nc3ccccc3)cc2)cccc1[N+](=O)[O-] | inactive |  |
| CCCCn1c(C(C)NC(=O)CC)nc2ccccc21 (configuration not stated) | active: 11.6 µM |  |
| O=C(Nc1nc(-c2ccco2)c(-c2ccco2)s1)c1cnccn1 | inconclusive: 25.9 µM [inhibitor, single point] |  |

| Compound | Potency | activity change, negative = growth inhibition |
| --- | --- | --- |
| Cc1c(N=Cc2cc3c(cc2[N+](=O)[O-])OCO3)cccc1[N+](=O)[O-] | inconclusive: 20.6 µM [inhibitor, single point] |  |
| CCOc1ccc(N(C)S(=O)(=O)c2cc(-c3cnc(C)o3)ccc2OC)cc1 | inconclusive: 16.4 µM [inhibitor, single point] |  |
| CC(OC(=O)c1ccc(Cl)nc1)C(=O)N1CCc2ccccc21 (configuration not stated) | inactive |  |
| COc1cc(OC)cc(-c2c(C#Cc3ccsc3)c3cc(-c4ccc(SC)cc4)ccc3n2C)c1 | inactive |  |
| Cc1ccc(C(=O)c2cc([N+](=O)[O-])ccc2N2CCOCC2)c(C)c1 | active: 0.92 µM |  |
| N#C/C(=C\c1ccc(O)c(O)c1)C(N)=O | active: 29.9 µM |  |
| COc1ccc(/C=C/C(=O)N(C)C2CCCCC2)cc1Br | inconclusive: 29.1 µM [inhibitor, single point] |  |
| CCC(c1nnnn1-c1c(C)cccc1C)N1CCN(CC)CC1 (configuration not stated) | inactive |  |
| Cc1ccc(C(C(=O)NC2CCCCC2)N(Cc2ccco2)C(=O)Cn2cnc3ccccc32)cc1 (configuration not stated) | inconclusive: 29.1 µM [inhibitor, single point] |  |
| COC(=O)/C=C1\SC(N)=NC1=O | inactive |  |
| CC(=O)c1c(C)[nH]c(C(=O)OCc2csc(CC(=O)Nc3ccccc3C)n2)c1C | active: 9.2 µM |  |
| COc1ccc(/C=C/C(=O)Nc2cccc(F)c2)cc1 | inconclusive: 29.1 µM [inhibitor, single point] |  |
| CCOC(=O)N/N=C1\CCc2ccccc21 | inactive |  |
| CC(C)C[C@@H]1CN=C(N)N1C[C@@H]1CCCN1C[C@H](C)N1C[C@@H](Cc2ccccc2)N(CCCC2CCCC2)C1=N | inconclusive: 18.4 µM [inhibitor, single point] |  |
| COc1ccc(C(=O)NCc2nnc(SC)n2Cc2ccccc2)cc1 | inactive |  |
| Cc1ccccc1OCc1nc(-c2cccnc2)no1 | inconclusive: 6.51 µM [inhibitor, full curve, poor fit] |  |
| Cc1cc(C)n(C(C)CC(=O)Nc2ccc3c(c2)OCO3)n1 (configuration not stated) | inconclusive: 16.4 µM [inhibitor, single point] |  |
| CCOC(=O)c1ccc(Nc2nc(C)nc3c2nnn3Cc2ccccc2)cc1 | inconclusive: 29.1 µM [inhibitor, single point] |  |
| Cn1c(=O)c2c(-c3ccccc3)n3c(c2n(C)c1=O)C(c1cccc([N+](=O)[O-])c1)Nc1ccccc1-3 (configuration not stated) | inconclusive: 18.4 µM [inhibitor, single point] |  |
| CCN(CC(=O)NCc1ccc(Cl)cc1)C(=O)CSCC(=O)Nc1cccc(C)c1 | inactive |  |
| O=C(O)/C=C\C(=O)Nc1ccc(OCc2ccccc2)cc1 | inactive |  |
| CCCn1c(CNc2ccccc2O)nc2ccccc21 | inconclusive: 18.4 µM [inhibitor, single point] |  |
| Cn1c(=O)n(Cc2ccccc2)c(=O)c2c1nc1n2CCS1 |  | inconclusive: -35.7% [inhibitor] |

From PubChem BioAssay AID686978 (National Center for Advancing Translational Sciences (NCATS), 2013)
